{"source": "paper PMC12820563", "about": "“FoxP3 forms a head-to-head dimer in vivo and stabilizes its multimerization on adjacent microsatellites”", "note": "The list shows a part of the results."}
{"molecular_target": "T1, MBP-FoxP1dN (Mus musculus, UniProt P58462 326-579)", "T1 sequence": "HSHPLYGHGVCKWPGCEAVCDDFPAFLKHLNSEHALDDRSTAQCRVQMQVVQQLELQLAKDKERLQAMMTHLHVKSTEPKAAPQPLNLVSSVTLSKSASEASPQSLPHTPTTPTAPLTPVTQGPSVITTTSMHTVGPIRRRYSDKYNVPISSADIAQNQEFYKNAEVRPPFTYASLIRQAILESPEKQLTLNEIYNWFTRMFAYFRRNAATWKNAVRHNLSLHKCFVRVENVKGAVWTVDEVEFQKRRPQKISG", "assay": "PD-seq (MBP pull-down with sequencing); 20 mM Tris-HCl pH 7.5, 100 mM NaCl, 1.5 mM MgCl2, 0.4 uM protein, 0.1 uM dsDNA library, 30 min, room temperature, amylose pull-down; high values mean tight binding", "conditions": "protein: recombinant; tags: His6-MBP; chain copies: 2; dsDNA, one strand shown", "in_short": "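His6-MBP-tagged mouse FoxP3 or FoxP1 fragment lacking the N-terminus, expressed in E. coli, was mixed at 0.4 µM with 0.1 µM Klenow-filled double-stranded degenerate DNA library. Incubation was 30 min at room temperature in Tris pH 7.5 buffer with NaCl and MgCl2. Complexes were caught on amylose resin and washed three times; DNA was released with proteinase K, PCR-barcoded and Illumina-sequenced. Binding is reads-per-million enrichment, pull-down over input, with replicates pooled.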"}
{"sequence": "GATGATTGTTCTCCCAGCTGATGAATTTCGACGGTCGAGTAAACAAATTTTCCTAATCTTTCTGTTCAAGCGCCATCTAC", "binding signal": "0.762 RPM ratio (pull-down/input)"}
{"sequence": "GATGATTGTTCTCCCAGCTGATGAATTTGAAGAGTCGAGTAAACAAATTTTCCTAATCTTTCTGTTCAAGCGCCATCTAC", "binding signal": "0.785 RPM ratio (pull-down/input)"}
{"sequence": "GATGATTGTTCTCCCAGCTGATGAATTCAGTTATTCGAGTAAACAAATTTTCCTAATCTTTCTGTTCAAGCGCCATCTAC", "binding signal": "1.03 RPM ratio (pull-down/input)"}
{"sequence": "GATGATTGTTCTCCCAGCTGATGAATTGTCAACGTCGAGTAAACAAATTTTCCTAATCTTTCTGTTCAAGCGCCATCTAC", "binding signal": "1.26 RPM ratio (pull-down/input)"}
{"sequence": "GATGATTGTTCTCCCAGCTGATGAATTACCATCTTCGAGTAAACAAATTTTCCTAATCTTTCTGTTCAAGCGCCATCTAC", "binding signal": "1.02 RPM ratio (pull-down/input)"}
{"sequence": "GATGATTGTTCTCCCAGCTGATGAATTTCGGGTATCGAGTAAACAAATTTTCCTAATCTTTCTGTTCAAGCGCCATCTAC", "binding signal": "0.828 RPM ratio (pull-down/input)"}
{"sequence": "GATGATTGTTCTCCCAGCTGATGAATTTCCAGCTTCGAGTAAACAAATTTTCCTAATCTTTCTGTTCAAGCGCCATCTAC", "binding signal": "0.823 RPM ratio (pull-down/input)"}
{"sequence": "GATGATTGTTCTCCCAGCTGATGAATTGCACAGATCGAGTAAACAAATTTTCCTAATCTTTCTGTTCAAGCGCCATCTAC", "binding signal": "1.2 RPM ratio (pull-down/input)"}
{"sequence": "GATGATTGTTCTCCCAGCTGATGAATTGGCGTGCTCGAGTAAACAAATTTTCCTAATCTTTCTGTTCAAGCGCCATCTAC", "binding signal": "0.881 RPM ratio (pull-down/input)"}
{"sequence": "GATGATTGTTCTCCCAGCTGATGAATTGTTATCATCGAGTAAACAAATTTTCCTAATCTTTCTGTTCAAGCGCCATCTAC", "binding signal": "1.73 RPM ratio (pull-down/input)"}
{"sequence": "GATGATTGTTCTCCCAGCTGATGAATTGACTTGCTCGAGTAAACAAATTTTCCTAATCTTTCTGTTCAAGCGCCATCTAC", "binding signal": "0.975 RPM ratio (pull-down/input)"}
{"sequence": "GATGATTGTTCTCCCAGCTGATGAATTACGATCTTCGAGTAAACAAATTTTCCTAATCTTTCTGTTCAAGCGCCATCTAC", "binding signal": "1.08 RPM ratio (pull-down/input)"}
{"sequence": "GATGATTGTTCTCCCAGCTGATGAATTCCTATCCTCGAGTAAACAAATTTTCCTAATCTTTCTGTTCAAGCGCCATCTAC", "binding signal": "0.762 RPM ratio (pull-down/input)"}
{"sequence": "GATGATTGTTCTCCCAGCTGATGAATTATCATCATCGAGTAAACAAATTTTCCTAATCTTTCTGTTCAAGCGCCATCTAC", "binding signal": "1.12 RPM ratio (pull-down/input)"}
{"sequence": "GATGATTGTTCTCCCAGCTGATGAATTATGGTGTTCGAGTAAACAAATTTTCCTAATCTTTCTGTTCAAGCGCCATCTAC", "binding signal": "1.11 RPM ratio (pull-down/input)"}
{"sequence": "GATGATTGTTCTCCCAGCTGATGAATTCGTGGCTTCGAGTAAACAAATTTTCCTAATCTTTCTGTTCAAGCGCCATCTAC", "binding signal": "0.863 RPM ratio (pull-down/input)"}
{"sequence": "GATGATTGTTCTCCCAGCTGATGAATTCTATAGTTCGAGTAAACAAATTTTCCTAATCTTTCTGTTCAAGCGCCATCTAC", "binding signal": "0.911 RPM ratio (pull-down/input)"}
{"sequence": "GATGATTGTTCTCCCAGCTGATGAATTTGGGCTGTCGAGTAAACAAATTTTCCTAATCTTTCTGTTCAAGCGCCATCTAC", "binding signal": "0.854 RPM ratio (pull-down/input)"}
{"sequence": "GATGATTGTTCTCCCAGCTGATGAATTAATGTAGTCGAGTAAACAAATTTTCCTAATCTTTCTGTTCAAGCGCCATCTAC", "binding signal": "1.24 RPM ratio (pull-down/input)"}
{"sequence": "GATGATTGTTCTCCCAGCTGATGAATTAAAGGCGTCGAGTAAACAAATTTTCCTAATCTTTCTGTTCAAGCGCCATCTAC", "binding signal": "1.03 RPM ratio (pull-down/input)"}
{"sequence": "GATGATTGTTCTCCCAGCTGATGAATTAGCAAGTTCGAGTAAACAAATTTTCCTAATCTTTCTGTTCAAGCGCCATCTAC", "binding signal": "0.864 RPM ratio (pull-down/input)"}
{"sequence": "GATGATTGTTCTCCCAGCTGATGAATTGAAGGGCTCGAGTAAACAAATTTTCCTAATCTTTCTGTTCAAGCGCCATCTAC", "binding signal": "0.795 RPM ratio (pull-down/input)"}
{"sequence": "GATGATTGTTCTCCCAGCTGATGAATTAAGACACTCGAGTAAACAAATTTTCCTAATCTTTCTGTTCAAGCGCCATCTAC", "binding signal": "0.953 RPM ratio (pull-down/input)"}
{"sequence": "GATGATTGTTCTCCCAGCTGATGAATTCTGGGTTTCGAGTAAACAAATTTTCCTAATCTTTCTGTTCAAGCGCCATCTAC", "binding signal": "0.808 RPM ratio (pull-down/input)"}
{"sequence": "GATGATTGTTCTCCCAGCTGATGAATTGTCTGACTCGAGTAAACAAATTTTCCTAATCTTTCTGTTCAAGCGCCATCTAC", "binding signal": "0.905 RPM ratio (pull-down/input)"}
{"sequence": "GATGATTGTTCTCCCAGCTGATGAATTAACAAATTCGAGTAAACAAATTTTCCTAATCTTTCTGTTCAAGCGCCATCTAC", "binding signal": "1.43 RPM ratio (pull-down/input)"}
{"sequence": "GATGATTGTTCTCCCAGCTGATGAATTTACGGCATCGAGTAAACAAATTTTCCTAATCTTTCTGTTCAAGCGCCATCTAC", "binding signal": "1.21 RPM ratio (pull-down/input)"}
{"sequence": "GATGATTGTTCTCCCAGCTGATGAATTTCAGCGCTCGAGTAAACAAATTTTCCTAATCTTTCTGTTCAAGCGCCATCTAC", "binding signal": "0.803 RPM ratio (pull-down/input)"}
{"sequence": "GATGATTGTTCTCCCAGCTGATGAATTAGAGTCTTCGAGTAAACAAATTTTCCTAATCTTTCTGTTCAAGCGCCATCTAC", "binding signal": "0.899 RPM ratio (pull-down/input)"}
{"sequence": "GATGATTGTTCTCCCAGCTGATGAATTAAAGGTGTCGAGTAAACAAATTTTCCTAATCTTTCTGTTCAAGCGCCATCTAC", "binding signal": "0.842 RPM ratio (pull-down/input)"}
{"sequence": "GATGATTGTTCTCCCAGCTGATGAATTCTGCACCTCGAGTAAACAAATTTTCCTAATCTTTCTGTTCAAGCGCCATCTAC", "binding signal": "0.768 RPM ratio (pull-down/input)"}
{"sequence": "GATGATTGTTCTCCCAGCTGATGAATTGCCACAATCGAGTAAACAAATTTTCCTAATCTTTCTGTTCAAGCGCCATCTAC", "binding signal": "1.47 RPM ratio (pull-down/input)"}
